Assay results taken from US20240199745A1, “ANTI-EGFR ANTIBODY DRUG CONJUGATES” (priority 2016, published 2024).

B1: AbG-CZ (conjugate)
heavy: EVQLQESGPGLVKPSQTLSLTCTVSGYSISNDFAWNWIRQLPGKGLEWMGYISYKGNTRYQPSLKSRITISRDTSKNQFFLKLNSVTAADTATYYCVTASRGLPYWGQGTLVTVSS[human IgG1 constant region left out here]
light: DIQMTQSPSSMSVSVGDRVTITCHSSQDITYNIGWLQQKPGKSFKGLIYHGANLDDGVPSRFSGSGSGTDYTLTISSLQPEDFATYYCVQYDEFPWTFGGGTKLEIKRTVAAPSVFIFPPSDEQLKSGTASVVCLLNNFYPREAKVQWKVDNALQSGNSQESVTEQDSKDSTYSLSSTLTLSKADYEKHKVYACEVTHQGLSSPVTKSFNRGEC
B2: AbG-TV (conjugate)
heavy: EVQLQESGPGLVKPSQTLSLTCTVSGYSISNDFAWNWIRQLPGKGLEWMGYISYKGNTRYQPSLKSRITISRDTSKNQFFLKLNSVTAADTATYYCVTASRGLPYWGQGTLVTVSS[human IgG1 constant region left out here]
light: DIQMTQSPSSMSVSVGDRVTITCHSSQDITYNIGWLQQKPGKSFKGLIYHGANLDDGVPSRFSGSGSGTDYTLTISSLQPEDFATYYCVQYDEFPWTFGGGTKLEIKRTVAAPSVFIFPPSDEQLKSGTASVVCLLNNFYPREAKVQWKVDNALQSGNSQESVTEQDSKDSTYSLSSTLTLSKADYEKHKVYACEVTHQGLSSPVTKSFNRGEC
B3: AbG-YY (conjugate)
heavy: EVQLQESGPGLVKPSQTLSLTCTVSGYSISNDFAWNWIRQLPGKGLEWMGYISYKGNTRYQPSLKSRITISRDTSKNQFFLKLNSVTAADTATYYCVTASRGLPYWGQGTLVTVSS[human IgG1 constant region left out here]
light: DIQMTQSPSSMSVSVGDRVTITCHSSQDITYNIGWLQQKPGKSFKGLIYHGANLDDGVPSRFSGSGSGTDYTLTISSLQPEDFATYYCVQYDEFPWTFGGGTKLEIKRTVAAPSVFIFPPSDEQLKSGTASVVCLLNNFYPREAKVQWKVDNALQSGNSQESVTEQDSKDSTYSLSSTLTLSKADYEKHKVYACEVTHQGLSSPVTKSFNRGEC
B4: AbG-AAA (conjugate)
heavy: EVQLQESGPGLVKPSQTLSLTCTVSGYSISNDFAWNWIRQLPGKGLEWMGYISYKGNTRYQPSLKSRITISRDTSKNQFFLKLNSVTAADTATYYCVTASRGLPYWGQGTLVTVSS[human IgG1 constant region left out here]
light: DIQMTQSPSSMSVSVGDRVTITCHSSQDITYNIGWLQQKPGKSFKGLIYHGANLDDGVPSRFSGSGSGTDYTLTISSLQPEDFATYYCVQYDEFPWTFGGGTKLEIKRTVAAPSVFIFPPSDEQLKSGTASVVCLLNNFYPREAKVQWKVDNALQSGNSQESVTEQDSKDSTYSLSSTLTLSKADYEKHKVYACEVTHQGLSSPVTKSFNRGEC
B5: AbG-AAD (conjugate)
heavy: EVQLQESGPGLVKPSQTLSLTCTVSGYSISNDFAWNWIRQLPGKGLEWMGYISYKGNTRYQPSLKSRITISRDTSKNQFFLKLNSVTAADTATYYCVTASRGLPYWGQGTLVTVSS[human IgG1 constant region left out here]
light: DIQMTQSPSSMSVSVGDRVTITCHSSQDITYNIGWLQQKPGKSFKGLIYHGANLDDGVPSRFSGSGSGTDYTLTISSLQPEDFATYYCVQYDEFPWTFGGGTKLEIKRTVAAPSVFIFPPSDEQLKSGTASVVCLLNNFYPREAKVQWKVDNALQSGNSQESVTEQDSKDSTYSLSSTLTLSKADYEKHKVYACEVTHQGLSSPVTKSFNRGEC
modifications: non-natural residues
B6: AbG-ZT (conjugate)
heavy: EVQLQESGPGLVKPSQTLSLTCTVSGYSISNDFAWNWIRQLPGKGLEWMGYISYKGNTRYQPSLKSRITISRDTSKNQFFLKLNSVTAADTATYYCVTASRGLPYWGQGTLVTVSS[human IgG1 constant region left out here]
light: DIQMTQSPSSMSVSVGDRVTITCHSSQDITYNIGWLQQKPGKSFKGLIYHGANLDDGVPSRFSGSGSGTDYTLTISSLQPEDFATYYCVQYDEFPWTFGGGTKLEIKRTVAAPSVFIFPPSDEQLKSGTASVVCLLNNFYPREAKVQWKVDNALQSGNSQESVTEQDSKDSTYSLSSTLTLSKADYEKHKVYACEVTHQGLSSPVTKSFNRGEC
B7: AbG-ZZ (conjugate)
heavy: EVQLQESGPGLVKPSQTLSLTCTVSGYSISNDFAWNWIRQLPGKGLEWMGYISYKGNTRYQPSLKSRITISRDTSKNQFFLKLNSVTAADTATYYCVTASRGLPYWGQGTLVTVSS[human IgG1 constant region left out here]
light: DIQMTQSPSSMSVSVGDRVTITCHSSQDITYNIGWLQQKPGKSFKGLIYHGANLDDGVPSRFSGSGSGTDYTLTISSLQPEDFATYYCVQYDEFPWTFGGGTKLEIKRTVAAPSVFIFPPSDEQLKSGTASVVCLLNNFYPREAKVQWKVDNALQSGNSQESVTEQDSKDSTYSLSSTLTLSKADYEKHKVYACEVTHQGLSSPVTKSFNRGEC
B8: AbG-SE (conjugate)
heavy: EVQLQESGPGLVKPSQTLSLTCTVSGYSISNDFAWNWIRQLPGKGLEWMGYISYKGNTRYQPSLKSRITISRDTSKNQFFLKLNSVTAADTATYYCVTASRGLPYWGQGTLVTVSS[human IgG1 constant region left out here]
light: DIQMTQSPSSMSVSVGDRVTITCHSSQDITYNIGWLQQKPGKSFKGLIYHGANLDDGVPSRFSGSGSGTDYTLTISSLQPEDFATYYCVQYDEFPWTFGGGTKLEIKRTVAAPSVFIFPPSDEQLKSGTASVVCLLNNFYPREAKVQWKVDNALQSGNSQESVTEQDSKDSTYSLSSTLTLSKADYEKHKVYACEVTHQGLSSPVTKSFNRGEC
B9: AbG-SR (conjugate)
heavy: EVQLQESGPGLVKPSQTLSLTCTVSGYSISNDFAWNWIRQLPGKGLEWMGYISYKGNTRYQPSLKSRITISRDTSKNQFFLKLNSVTAADTATYYCVTASRGLPYWGQGTLVTVSS[human IgG1 constant region left out here]
light: DIQMTQSPSSMSVSVGDRVTITCHSSQDITYNIGWLQQKPGKSFKGLIYHGANLDDGVPSRFSGSGSGTDYTLTISSLQPEDFATYYCVQYDEFPWTFGGGTKLEIKRTVAAPSVFIFPPSDEQLKSGTASVVCLLNNFYPREAKVQWKVDNALQSGNSQESVTEQDSKDSTYSLSSTLTLSKADYEKHKVYACEVTHQGLSSPVTKSFNRGEC
B10: AbG-YG (conjugate)
heavy: EVQLQESGPGLVKPSQTLSLTCTVSGYSISNDFAWNWIRQLPGKGLEWMGYISYKGNTRYQPSLKSRITISRDTSKNQFFLKLNSVTAADTATYYCVTASRGLPYWGQGTLVTVSS[human IgG1 constant region left out here]
light: DIQMTQSPSSMSVSVGDRVTITCHSSQDITYNIGWLQQKPGKSFKGLIYHGANLDDGVPSRFSGSGSGTDYTLTISSLQPEDFATYYCVQYDEFPWTFGGGTKLEIKRTVAAPSVFIFPPSDEQLKSGTASVVCLLNNFYPREAKVQWKVDNALQSGNSQESVTEQDSKDSTYSLSSTLTLSKADYEKHKVYACEVTHQGLSSPVTKSFNRGEC
B11: AbG-KZ (conjugate)
heavy: EVQLQESGPGLVKPSQTLSLTCTVSGYSISNDFAWNWIRQLPGKGLEWMGYISYKGNTRYQPSLKSRITISRDTSKNQFFLKLNSVTAADTATYYCVTASRGLPYWGQGTLVTVSS[human IgG1 constant region left out here]
light: DIQMTQSPSSMSVSVGDRVTITCHSSQDITYNIGWLQQKPGKSFKGLIYHGANLDDGVPSRFSGSGSGTDYTLTISSLQPEDFATYYCVQYDEFPWTFGGGTKLEIKRTVAAPSVFIFPPSDEQLKSGTASVVCLLNNFYPREAKVQWKVDNALQSGNSQESVTEQDSKDSTYSLSSTLTLSKADYEKHKVYACEVTHQGLSSPVTKSFNRGEC

Assays:
[1] = Size exclusion chromatography (SEC), % aggregate fraction of ADCs; type: physicochemical; conditions: Shodex KW802.5, absorbance at 280 nm
Method: Size exclusion chromatography (SEC) was performed using a Shodex KW802.5 column in 0.2M potassium phosphate pH 6.2 with 0.25 mM potassium chloride and 15% isopropyl alcohol at a flow rate of 0.75 ml/min. The peak area absorbance at 280 nm was determined for each of the high molecular weight and monomeric eluents by integration of the area under the curve. The % aggregate fraction of the conjugate sample was determined by dividing the peak area absorbance at 280 nm for the high molecular weight eluent by the sum of the peak area absorbances at 280 nM of the high molecular weight and monomeric eluents multiplied by 100%.
The average DAR values were determined using the above LC-MS method. The % aggregate fraction for the ADCs was also determined using the SEC method described in Example 2.2. The DAR and % aggregation are both reported below in Table 7.

[2] = test system: mcl-1−/− MEF Vector Control; experiment: CellTiter-Glo cell viability, Mcl-1-/- MEF empty vector control, 96 hours; type: cell-based, mouse
Method: Retroviral supernatants were produced through transfection of the GP2-293 packaging cell line (Clontech) with the retroviral construct pLVC-IRES-Hygro (Clontech) containing huEGFR sequence or the empty vector utilizing FuGENE 6 transfection reagent (Roche Molecular Biochemicals, Mannheim, Germany). After 48 hours of culture, virus-containing supernatant was harvested and applied to mcl-1^−/− MEFs in 75 cm^2 culture flasks (0.5×10^6 per flask) for a further 48 hours in the presence of polybrene (8 μg/ml; Sigma). Mcl-1^−/− MEFs were washed and selected after 3 days with 250 μg/mL hygromycin B (Invitrogen) in the full complement of media. The expression of huEGFR was confirmed by flow cytometry and compared to the parental cell line or those transfected with the empty vector.
Mcl-1^−/− MEFs expressing huEGFR or the pLVX empty vector (Vct Ctrl) were treated with AB033-targeted Bcl-xL-ADCs, AB033 alone or MSL109-targeted Bcl-xL-ADCs for 96 hours in DMEM containing 10% FBS. For the assay, the cells were plated at 250 cells per well in 384-well tissue culture plates (Corning, Corning, NY) in a total volume of 25 μL of assay media (DMEM and 10% HI FBS). The plated cells were treated with a 4-fold serial dilution of the Antibody Drug Conjugates of interest from either 1 μM or 0.5 μM to either 1 50 μM or 25 μM, respectively. Each concentration was tested in at least three replicates for the Mcl-1^−/− MEF huEGFR cell line and for the Mcl-1^−/− MEF vector cell line. The fraction of viable cells following 96 hours of Antibody Drug Conjugate treatment at 37° C. and 5% CO2 was determined using the CellTiter-Glo Luminescent Cell Viability Assay according to the manufacturer's recommendations (Promega Corp., Madison, WI). The plates were read in a Perkin Elmer Envision using a Luminescence protocol with 0.1 see integration time. The replicate values for each dilution point were averaged and the EC50 values for the Antibody Drug Conjugates were generated by fitting the data with GraphPad Prism 5 (GraphPad Software, Inc.) to a sigmoidal curve model using linear regression, Y=((Bottom−Top)/(1+((x/K)^n)))+Top, where Y is the measured response, x is the compound concentration, n is the Hill Slope and K is the EC50 and Bottom and Top are the lower and higher asymptotes respectively. Visual inspection of curves was used to verify curve fit results. Mcl-1^−/− MEFs were obtained from David C. S. Huang of the Walter and Eliza Hall Institute of Medical Research.

[3] = test system: NCI-H1650 xenograft; experiment: NCI-H1650 flank xenograft model of NSCLC, tumor growth inhibition and delay; type: in vivo, SCID/bg mice; conditions: Table 10; 10 mg/kg/day, QD × 1/IP

Row | Molecule | % Agg (by SEC) [1] [%] | EC50 [2] [nM] | TGImax [3] [%]
1 | B1 | 4 | 194 | –
2 | B2 | 1.4 | 196 | –
3 | B3 | 16.5 | – | –
4 | B4 | 17.5 | – | 76
5 | B5 | 2.5 | – | –
6 | B6 | 12.4 | – | –
7 | B7 | 16.8 | – | –
8 | B8 | 2.1 | – | –
9 | B9 | 36.7 | – | –
10 | B10 | 2.4 | – | –
11 | B11 | 11.6 | – | –
